Screen size: about 310,000 compounds; about 2,200 (0.71%) showed an effect of 50% or more. Effects have a minus sign here. The list shows a part of the results. Where a SMILES comes first, the peptide text is derived from it. The star is where a group is joined. Cbz = O=C(OCc1ccccc1)*; OtBu = CC(C)(C)O*; tBu = CC(C)(C)*
Biological target: human ether-à-go-go-related gene (hERG) potassium channel (human, UniProt Q12809)
Assay: primary screen, population patch clamp on CHO cells stably expressing hERG

human ether-à-go-go-related gene (hERG) potassium channel, sequence (Q12809 whole entry, looked up): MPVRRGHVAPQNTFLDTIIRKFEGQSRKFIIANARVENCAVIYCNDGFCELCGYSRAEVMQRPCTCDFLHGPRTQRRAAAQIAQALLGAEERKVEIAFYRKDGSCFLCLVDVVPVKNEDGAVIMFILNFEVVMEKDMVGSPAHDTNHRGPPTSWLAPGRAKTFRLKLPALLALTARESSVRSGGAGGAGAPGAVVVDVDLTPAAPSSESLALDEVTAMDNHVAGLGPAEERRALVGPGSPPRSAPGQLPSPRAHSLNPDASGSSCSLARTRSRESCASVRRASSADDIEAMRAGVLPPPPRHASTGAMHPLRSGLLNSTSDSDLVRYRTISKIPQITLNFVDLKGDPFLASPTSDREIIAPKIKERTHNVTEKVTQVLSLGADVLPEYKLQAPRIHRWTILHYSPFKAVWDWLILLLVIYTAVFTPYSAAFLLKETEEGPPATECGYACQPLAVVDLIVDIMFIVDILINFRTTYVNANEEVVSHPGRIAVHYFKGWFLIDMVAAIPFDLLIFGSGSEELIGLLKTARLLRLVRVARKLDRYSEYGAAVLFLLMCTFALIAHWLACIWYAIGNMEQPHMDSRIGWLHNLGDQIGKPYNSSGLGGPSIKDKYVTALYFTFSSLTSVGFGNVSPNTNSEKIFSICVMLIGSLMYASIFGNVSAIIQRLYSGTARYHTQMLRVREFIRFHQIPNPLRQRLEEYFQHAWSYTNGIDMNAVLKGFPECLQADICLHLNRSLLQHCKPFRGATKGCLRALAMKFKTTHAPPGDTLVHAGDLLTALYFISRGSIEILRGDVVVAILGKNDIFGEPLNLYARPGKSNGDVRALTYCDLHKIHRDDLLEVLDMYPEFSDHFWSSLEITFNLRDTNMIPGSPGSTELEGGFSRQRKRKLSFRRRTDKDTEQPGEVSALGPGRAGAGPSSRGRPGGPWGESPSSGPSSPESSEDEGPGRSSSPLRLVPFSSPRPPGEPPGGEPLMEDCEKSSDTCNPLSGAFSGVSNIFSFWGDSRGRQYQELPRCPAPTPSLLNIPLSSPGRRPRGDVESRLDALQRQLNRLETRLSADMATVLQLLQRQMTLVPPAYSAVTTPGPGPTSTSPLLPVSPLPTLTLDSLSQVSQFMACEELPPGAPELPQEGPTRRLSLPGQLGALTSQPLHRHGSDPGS

| Structure (SMILES) | hERG current change (%, negative = inhibition) at 1uM [%] |
| --- | --- |
| CC1(C)CSC(=NCCc2ccccc2)N1 | 22.1 |
| Cn1cccc1C(=O)NNC(=O)COc1ccc(C#N)cc1 | 2.22 |
| O=C(Nc1n[nH]c(C2CCCCC2)n1)C1CCCCC1 | 9.42 |
| Cc1ccc(C)c(OCc2cc(C(=O)N3CCOCC3)no2)c1 | 9.42 |
| CC(C)(C)NC(=O)C1CCN(C(=O)c2ccco2)CC1 | 11.6 |
| Cc1ccc(C(=O)NCCc2nnc3ccc(NCCCN4CCOCC4)nn23)cc1 | 11.1 |
| CC(=O)Nc1ccc(N(C(=O)c2ccco2)C(C(=O)NC2CCCC2)c2cccs2)cc1 (stereo not drawn) | 17 |
| Cc1cccc(C)c1Nc1nnc(SCc2nc3ccccc3s2)s1 | 1.36 |
| COc1ccc(CNC(=S)N/N=C/c2ccc(O)c(OC)c2)cc1 | 8.03 |
| Cc1cc(C)n2nc(SCc3ccc(F)cc3Cl)nc2n1 | 12 |
| Cn1c(Cc2ccc3c(c2)OCO3)nnc1SCC(=O)NC(C)(C)C | 26.5 |
| O=C(CC1C(=O)NCCN1Cc1ccc(-c2ccccc2)cc1)NCCc1ccccn1 (stereo not drawn) | 16.5 |
| Cc1ccc(-c2csc(NC(=O)c3cccc(N4C(=O)CCC4=O)c3)n2)o1 | 8.76 |
| CCc1cccc2c(C(=O)COC(=O)/C=C/c3ccc(O)c(OC)c3)c[nH]c12 | 5.93 |
| O=C(CNC(=O)c1ccc(Cl)cc1Cl)OCCCn1c(=O)[nH]c2ccccc21 | 12.5 |
| COc1ccc(C(Nc2ccc(S(=O)(=O)N3CCOCC3)cc2)C(=O)NCCC(C)C)cc1OC (stereo not drawn) | 8.44 |
| CCOc1c(N2CC(C)OC(C)C2)c(=O)c1=O (stereo not drawn) | 10.4 |
| CC1CC(C)CN(C(=O)C2CCCN(c3ncnc4c3nc3n4CCCCC3)C2)C1 (stereo not drawn) | -1.13 |
| Cc1ccc(S(=O)(=O)N2CCN(C(=O)CN3CCCCC3)C2)cc1 | 5.17 |

| Structure (SMILES) | hERG current change (%, negative = inhibition) at 1uM [%] |
| --- | --- |
| O=C(O)Cn1nnc(-c2cccs2)n1 | 6.29 |
| O=C(CCc1ccc(S(=O)(=O)N2CCOCC2)cc1)Oc1ccccc1 | 3.71 |
| COc1ccc(C(=O)N2CCN(CCNC(=O)C(=O)Nc3ccc(F)cc3)CC2)cc1 | -44.9 |
| NC(=O)c1ccsc1NC(=O)C1CCCCC1 | 4.81 |
| c1ccc(C[C@H]2CN=C(Nc3ccccc3)N2CCC2CCCC2)cc1 | -17.5 |
| C/C(=N\N=C1\NC(=O)C(Cc2ccccc2)S1)c1ccccc1 (stereo not drawn) | 15.6 |
| CCOc1ccc(NC(=O)CSc2nnc(N)s2)c([N+](=O)[O-])c1 | -4.47 |
| Fc1cc2[nH]c(=S)[nH]c2cc1Cl | 11.5 |
| C[C@@H]1CN(Cc2cn(C)nc2-c2cccc(Cl)c2)C[C@H](C)O1 | 10.2 |
| CN(C)C(=O)CSc1ncccc1-c1nc2ccccc2[nH]1 | 11.8 |
| O=C(OCCN=C1NS(=O)(=O)c2ccccc21)c1ccccc1 | -12.2 |
| CC(=O)Nc1cccc(NC(=O)COc2ccc3c(c2)OCO3)c1 | 10.8 |
| COc1ccc(C2c3c(-c4ccccc4)n[nH]c3C(=O)N2c2ccc(C(=O)O)cc2)cc1 (stereo not drawn) | 7.07 |
| C=CC(C)N1C(=O)S/C(=C\c2ccc(N3CCOCC3)cc2C)C1=O (stereo not drawn) | 7.33 |
| Cc1cccnc1Nc1nc(-c2ccccc2)cs1 | 11.1 |
| O=C(CSc1nc2scc(-c3ccccc3)c2c(=O)[nH]1)Nc1ccccc1 | 15.9 |
| CC1=Nc2cc(C(=O)NCCCN3CCN(C)CC3)ccc2Sc2ccc(C)cc21 | 6.06 |
| CCOc1ccc(CCNS(=O)(=O)c2ccc(-c3ccc(=O)[nH]n3)o2)cc1OCC | -2.54 |
| COc1cc(OC)cc(C(=O)Nc2ncc3c(n2)CC(C)(C)CC3=O)c1 | 3.29 |

| Structure (SMILES) | hERG current change (%, negative = inhibition) at 1uM [%] |
| --- | --- |
| Cc1ccc(NCCCCO)cc1C | 12.9 |
| CC(=O)c1cc(CC(=O)N2CCc3c([nH]c4ccccc34)C2c2ccccn2)cs1 (stereo not drawn) | 11 |
| CCNc1ccc(S(=O)(=O)N2CCCCC2)cn1 | 12.7 |
| CC(Oc1ccc2c3c(c(=O)oc2c1)CCCC3)C(=O)NCC(O)c1ccccc1 (stereo not drawn) | 15 |
| O=C(C1=C[C@H](c2ccc3c(c2)OCO3)C[C@H](OCCCCO)O1)N1CCOCC1 | 9.42 |
| NS(=O)(=O)c1ccc(NC(=O)c2ccc(Cl)c(S(=O)(=O)NCc3ccco3)c2)cc1 | 13.3 |
| COc1cccc(-c2nc(-c3ccc(NC(=O)c4cccnc4)cc3)no2)c1 | 4.64 |
| O=S(=O)(c1ccccc1F)N1CCN(Cc2cc3c(cc2O)OCO3)CC1 | -10.9 |
| CN(C)S(=O)(=O)c1cc(NC(=O)c2cc(=O)[nH]c3ccccc23)ccc1Cl | 7.32 |
| COCCNC(=O)CN(c1cc(Cl)ccc1OC)S(=O)(=O)c1ccc(C)c([N+](=O)[O-])c1 | 17 |
| CCC(=O)/C=C1/Sc2ccc(OC)cc2N1CCO | 14.6 |
| Cc1cc(C)c(S(=O)(=O)Nc2nnc(C(C)C)s2)c(C)c1 | 16 |
| Cc1ccc(C(c2nnnn2C(C)(C)C)N(Cc2ccco2)Cc2cccs2)cc1 (stereo not drawn) | 6.63 |
| CC1CC2=C(NC(=S)NC2c2ccc(F)cc2)/C(=C/c2ccc(F)cc2)C1 (stereo not drawn) | 2.93 |
| CCOC(=O)c1c(N)n(Cc2ccco2)c2nc3ccccc3nc12 | -38.7 |
| C=C(C)CSc1cc(C)c(C#N)c2nc3ccccc3n12 | 0.84 |
| COC(=O)c1c(NC(=O)COC(=O)CCNS(=O)(=O)c2ccccc2)sc(C)c1C | 11.1 |
| Nc1nc(SCC(=O)c2cccc([N+](=O)[O-])c2)n[nH]1 | 5.93 |
| CC(NC(=O)OCc1ccccc1)C(=O)NCC(=O)NC(Cc1ccc(OC(C)(C)C)cc1)C(=O)OC(C)(C)C (stereo not drawn) (Cbz-Ala-Gly-Tyr(tBu)-OtBu; configuration not given here) | 1.74 |
